Measurements reported in ChEMBL document CHEMBL1201862, “PubChem BioAssay data set” (2004).
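Test compounds were applied to cells in 96-well plates for 48 hours at 5 doses. GI50 marks 50% less growth.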 The source made the active and inactive calls. Cut-off read from the data, not from the text of the source: active = GI50 up to about 1.1 µM and inactive = higher.

System: NCI-H322M
Assay: inhibition of tumour cell growth, NCI panel, 48 h

Row | Compound | GI50
1 | O=[N+]([O-])/C(C(Cl)=C(Cl)Cl)=C(/Sc1ccccc1)N1CCCCC1 | inactive: > 100 µM
2 | Cc1ccc(S(=O)(=O)Oc2cc(N)c3c(n2)CCC3)cc1 | inactive: > 100 µM
3 | CC1(C)C2CCC1(CS(=O)(=O)Nc1ccccc1)C(=O)C2 (centres undefined) | inactive: > 100 µM
4 | CN(C)CCCN=C(N)N | inactive: > 100 µM
5 | O=C(NNc1ccccc1)c1ccc(Cl)c(Cl)c1 | inactive: 12.1 µM
6 | COc1ccc2nccc(/C=C/c3ccc(N(C)C)cc3)c2c1 | inactive: > 10 µM
7 | C=C1C(C2(C)C=CC(=O)OC3(C)COC(=O)CC32)C(OC=O)C(OC(=O)C(O)C(C)CC)C2(C)C(c3ccoc3)CC(OC(C)=O)C12O (centres undefined) | inactive: > 100 µM
8 | C=CCN1C(=O)C/C(=C2/CCC(=O)N2CC=C)C1=O | inactive: > 100 µM
9 | N=C(N)NS(=O)(=O)c1ccc(NC(=O)c2cccc3c(NNc4ccc(C(=O)O)cc4)c4ccccc4nc23)cc1 | inactive: > 100 µM
10 | COC(=O)CN1SC2(SC13C(C)(C)C(=O)C3(C)C)C(C)(C)C(=O)C2(C)C | inactive: > 100 µM
11 | CC(C)(C)OC(=O)N1N=NC2C1C1CC(OCc3ccccc3)(OCc3ccccc3)C2O1 (centres undefined) | inactive: > 100 µM
12 | Cc1ccc(C2[C@H]3C(=O)N(c4ccc(Cc5ccc(N6C(=O)[C@@H]7ON(c8ccccc8)C(c8ccc(C)cc8)[C@@H]7C6=O)cc5)cc4)C(=O)[C@H]3ON2c2ccccc2)cc1 (some centres undefined) | inactive: > 100 µM
13 | CCc1cccc(C)c1NC(=O)NS(=O)(=O)c1ccc(C)cc1 | inactive: > 100 µM
14 | CSc1nnc(SC)nn1 | inactive: > 100 µM
15 | Cc1nc(SCC(=O)Nc2ccccc2)c2sc(=S)n(-c3ccccc3)c2n1 | inactive: > 10 µM
16 | OC1=C2c3ccccc3NC2Oc2cc(F)ccc21 (centres undefined) | inactive: 19 µM
17 | CCN(CC)CCCNC(=O)c1cc(-c2nccn2C)nc2ccccc12 | inactive: > 100 µM
18 | Nc1ccc(Nc2c3ccccc3nc3ccccc23)cc1 | inactive: 6.5 µM
19 | Cc1ccc(S(=O)(=O)Nn2c(S)c(C#N)c(-c3ccc(Cl)cc3)c(C#N)c2=O)cc1 | inactive: 59.4 µM
20 | COC1(O)c2cccc(Cl)c2C(=O)N1C1(C(N)=O)CCCCC1 (centres undefined) | inactive: > 100 µM
21 | Nc1nc2c(C(=O)O)c3ccc([N+](=O)[O-])cc3c(=O)n2c2ccccc12 | inactive: 27.5 µM
22 | CCc1ccccc1NC(=O)C(=O)C(C#N)c1ccccc1Cl (centres undefined) | inactive: > 100 µM
23 | CO[C@]12CC(=O)C3(C(C[C@H]4CC5CCC6=CC(=O)CC[C@]6(OC(C)=O)C5C[C@@]43C)C1)C1C[C@H]3[C@@H]4CCC5=CC(=O)CC[C@]5(OC(C)=O)[C@H]4CC[C@]3(C)C12 (some centres undefined) | inactive: > 100 µM

Row | Compound | GI50
24 | CN(/N=C(\C(=O)O)c1ccccc1)C1=NCCN1 | inactive: > 100 µM
25 | Clc1cc2n[se]nc2cc1Cl | inactive: > 100 µM
26 | O=C1CC(Cl)c2c1csc2Br (centres undefined) | inactive: 18.3 µM
27 | CCN1CCN(c2ccc(Nc3ccnc4ccc5nn(C)nc5c34)cc2)CC1 | inactive: 12.1 µM
28 | COc1ccc(C2CC(c3ccc(NS(=O)(=O)c4cc([N+](=O)[O-])ccc4C)cc3)=NN2S(=O)(=O)c2cc([N+](=O)[O-])ccc2C)cc1 (centres undefined) | inactive: 50.2 µM
29 | CC(Oc1cc2oc(=O)cc(-c3ccccc3)c2cc1Cl)C(=O)O (centres undefined) | inactive: > 100 µM
30 | CCCCC(=O)Oc1ccc2c(C)cc(=O)oc2c1 | inactive: > 100 µM
31 | NC(=S)NNC(=O)/C(=C/c1ccc(/C=C(\NC(=O)c2ccccc2)C(=O)NNC(N)=S)cc1)NC(=O)c1ccccc1 | inactive: > 100 µM
32 | Cc1c(N=NN(C)C)cc[n+]([O-])c1C | inactive: > 100 µM
33 | O=C1CSC(c2cc3cc(Br)ccc3nc2Cl)N1c1ccc(F)c(Cl)c1 (centres undefined) | inactive: > 50 µM
34 | CC(C)(C)OC(=O)n1cc(C2CN(O)C(=O)C23CCC(=O)N3Cc2ccccc2)c2ccccc21 (centres undefined) | inactive: 31.3 µM
35 | CC(=O)/C(=C/n1c(=S)sc2ccccc21)C(=O)Nc1ccccc1C | inactive: > 100 µM
36 | NC(CSc1nc2ccccn2c1[N+](=O)[O-])C(=O)O (centres undefined) | inactive: > 100 µM
37 | CC(=O)OCCCCN1C(=O)CSc2ccccc21 | inactive: > 100 µM
38 | COC(=O)CNC(=O)C(CSC(=O)OCC1c2ccccc2-c2ccccc21)NC(=O)CCC(NC(=O)OCC1c2ccccc2-c2ccccc21)C(=O)OC (centres undefined) | inactive: 24.4 µM
39 | CC(=O)/C(=C/c1ccccc1F)C(=O)c1ccccc1 | inactive: 97.7 µM
40 | CN(C)CCNC(=O)c1cccc2[nH]c(-c3cccnc3)nc12 | inactive: 22.6 µM
41 | CN1C(=O)C2CCC(=O)N2c2cccnc21 (centres undefined) | inactive: > 100 µM
42 | Cn1c2ccccc2c(=O)c2c(O)cc3c(c21)C=CC1(CCCCC1)O3 | inactive: > 10 µM
43 | O=C1N[C@@H](c2c[nH]c3cc(Br)ccc23)C(=O)N[C@H]1c1c[nH]c2cc(Br)ccc12 | inactive: > 100 µM
44 | Brc1ccc(C2C3CSc4ccccc4C3=NN2c2ccccc2)cc1 (centres undefined) | inactive: > 100 µM
45 | CCOC1Oc2ccccc2-c2nc(SC)ncc21 (centres undefined) | inactive: > 100 µM
46 | c1ccc(/N=C(/Nc2ccccc2)N2CCCCC2)cc1 | inactive: > 100 µM

Row | Compound | GI50
47 | Cc1ccc2c(c1)C(O)(c1ccccc1)CCS2 (centres undefined) | inactive: 28.7 µM
48 | O=C(CSc1nnc(-c2ccccn2)s1)N/N=C/c1ccccc1 | inactive: > 100 µM
49 | NC1=NS(=O)(=O)Nc2nc(-c3ccc([N+](=O)[O-])cc3)[nH]c21 | inactive: > 100 µM
50 | COc1ccc(-c2c(C(C)=O)c(-c3ccccc3)n(C3OC(COC(C)=O)C(OC(C)=O)C(OC(C)=O)C3OC(C)=O)c(=S)c2C#N)cc1 (centres undefined) | inactive: > 100 µM
51 | CC12Nc3c(Cl)cc(Cl)cc3N1C(=O)c1ccccc12 (centres undefined) | inactive: > 100 µM
52 | C[n+]1[n-]o/c(=N\N=O)c1-c1cc(-c2/c(=N/N=O)o[n-][n+]2C)cc(-c2/c(=N\N=O)o[n-][n+]2C)c1 | inactive: > 100 µM
53 | CN1CCN(C(=S)N2CCN(C)CC2)CC1 | inactive: > 100 µM
54 | C/C=C/C/C=C/CCC(=O)C1OC1C(N)=O (centres undefined) | inactive: 20.2 µM
55 | COc1ccc2oc(=O)c(-c3csc(-c4ccccc4)n3)cc2c1 | inactive: 67.8 µM
56 | CCOC(=O)c1sc2nc(SC)nc3c2c1NC(=O)CN3c1cccc(F)c1 | inactive: 21.2 µM
57 | COC(=O)c1ccccc1C1=C([N+](=O)[O-])C(c2ccccc2)C(C#N)=C(N)O1 (centres undefined) | inactive: > 100 µM
58 | COc1cc(C[P+](c2ccccc2)(c2ccccc2)c2ccccc2)cc(OC)c1OC | inactive: > 100 µM
59 | CC1=NN(c2nc(N)nc(/C(C#N)=C/c3cccn3-c3cc(Cl)cc(Cl)c3)n2)C(C)(C)C1 | inactive: > 100 µM
60 | CC(=O)NC1=C(NCCC(C)C)C(=O)c2ccccc2C1=O | inactive: > 50 µM
61 | CCO/C([O-])=C(\C(=O)c1ccc([N+](=O)[O-])cc1)[n+]1c(C)n(C)c2ccccc21 | inactive: > 100 µM
62 | O=C(CN1CCOCC1)Nc1ccc2c(c1)C1Oc3ccccc3CC1CO2 (centres undefined) | inactive: > 100 µM
63 | CC(=O)OCC1OC(n2ccc(=O)[nH]c2=O)C(OC(C)=O)C(OC(C)=O)C1OC(C)=O (centres undefined) | inactive: > 100 µM
64 | Cc1cc(C)c(S(=O)(=O)N2CCCN(S(=O)(=O)c3c(C)cc(C)cc3C)OCCCON(S(=O)(=O)c3c(C)cc(C)cc3C)CCCN(S(=O)(=O)c3c(C)cc(C)cc3C)OCCCO2)c(C)c1 | inactive: > 100 µM
65 | O=C(O)C(Cc1cc(I)c(O)c(I)c1)C1CCCCC1 (centres undefined) | inactive: 39.5 µM
66 | Cc1ccc(Oc2cc(C)ccc2P(=O)(O)O)cc1 | inactive: > 100 µM
67 | CCOc1ccc(N/C(=C(/C(Cl)=C(/Cl)N2CCCCC2)[N+](=O)[O-])n2nnc3ccccc32)cc1 | inactive: 17.2 µM
68 | CN(C)C=C1C(=O)N(C)C(=O)N(C)C1=O | inactive: > 100 µM
69 | CS(=O)(=O)OCCN1CCN(C(=O)c2ccc(Cl)c3c(Nc4ccc(S(=O)(=O)N=C(N)N)cc4)c4ccccc4nc23)CC1 | inactive: > 100 µM

Row | Compound | GI50
70 | CCOC(=O)C(=O)Nc1nc2c(s1)C(=O)c1ccccc1C2=O | inactive: 16.6 µM
71 | O=c1oc2ccc(Cl)cc2cc1-c1cn2ccccc2n1 | inactive: > 54.1 µM
72 | CN1CCOC1c1ccccc1O (centres undefined) | inactive: > 100 µM
73 | Cc1ccc(NC(c2ccccc2)c2ccc3cccnc3c2O)cc1 (centres undefined) | inactive: 3.18 µM
74 | CC(C)(C)OC(=O)NC1CCCC1C(O)(C1=CCCC1)C1=CCCC1 (centres undefined) | inactive: > 100 µM
75 | CC(=O)OCC1OC(n2c(-c3ccc(N)cc3)cc(-c3ccco3)c(C#N)c2=O)C(OC(C)=O)C(OC(C)=O)C1OC(C)=O (centres undefined) | inactive: > 50 µM
76 | CCCCCCCCCc1cc(=O)c2c(O)cc(O)cc2o1 | inactive: 20 µM
77 | O=C/C1=C/C2=Cc3ccccc3C=C(/C=C(/C=O)C1)C2 | inactive: > 100 µM
78 | O=C1CCc2cc3c(cc21)CC1(Cc2ccccc2C1)C3 | inactive: 31.8 µM
79 | CN(NC(=O)c1ccco1)C1=NCCN1 | inactive: > 100 µM
80 | O=c1c2ccccc2nc2n1-c1ccccc1SC2 | inactive: > 100 µM
81 | Cn1c([C@H](C#N)C(=O)c2cc(O)ccc2[N+](=O)[O-])nc2ccccc21 | inactive: > 100 µM
82 | C=C1[C@H](OC(=O)C(C)C)[C@]23CC4(O)[C@@H]5[C@@]6(C)CCC[C@]57C([C@@H]2C[C@@]1(O)[C@H](O)[C@@H]73)N4C6 | inactive: > 100 µM
83 | CCC1CN2CCc3c([nH]c4ccccc34)[C@@](C(=O)OC)(c3cc4c(cc3OC)N(C)C3C(O)(C(=O)OC)C(C(=O)OC)C5(CC)C=CCN6CCC43C65)C[C@@H](C2)[C@@H]1C(C)(C)C (some centres undefined) | active: 0.498 µM
84 | CC(C)=CC(=O)N(C)C1C2CN3CCC(O2)C13 (centres undefined) | inactive: > 100 µM
85 | CC[C@H](C)[C@H]1NC(=O)[C@@H](NC(=O)[C@@H](CC(C)C)N(C)C(=O)C2CCCN2C(=O)[C@H](C)O)[C@@H](C)OC(=O)[C@@H]2Cc3ccccc3CN2C(=O)[C@@H]2CCCN2C(=O)[C@H](CC(C)C)NC(=O)[C@@H](C)C(=O)[C@H](C(C)C)OC(=O)C[C@@H]1O (some centres undefined) | active: 0.387 µM
86 | COc1cccc(-c2cc(=O)c3ccc(C)nc3[nH]2)c1 | active: 0.126 µM
87 | CC1C2Cc3ccc(O)cc3C1(C)CCN2C (centres undefined) | inactive: > 100 µM
88 | CC(C)=CCNc1ncnc2[nH]cnc12 | inactive: > 100 µM
89 | Cn1c2ccccc2c2[nH]cc3nc4ccccc4c-3c21 | inactive: 17.9 µM
